No constants are given. Whether binding was seen depends on the method and setting. For some of these results: Binding seen in cells or lysates may run through a third protein. Some entries that bind do so weakly or less than the wild type. For some of these results: Where a sequence is shown, tags or fusion partners need not be part of it.

By UniProt entry, the sequences of proteins in these tests, tags left out. Where a name states a change or a piece, a line headed by the entry shows the natural chain unless it says otherwise. Chains listed by the source or under a name are the forms on record and can include a tag or linker. Residues count along the entry.
UniProt Q9UM11: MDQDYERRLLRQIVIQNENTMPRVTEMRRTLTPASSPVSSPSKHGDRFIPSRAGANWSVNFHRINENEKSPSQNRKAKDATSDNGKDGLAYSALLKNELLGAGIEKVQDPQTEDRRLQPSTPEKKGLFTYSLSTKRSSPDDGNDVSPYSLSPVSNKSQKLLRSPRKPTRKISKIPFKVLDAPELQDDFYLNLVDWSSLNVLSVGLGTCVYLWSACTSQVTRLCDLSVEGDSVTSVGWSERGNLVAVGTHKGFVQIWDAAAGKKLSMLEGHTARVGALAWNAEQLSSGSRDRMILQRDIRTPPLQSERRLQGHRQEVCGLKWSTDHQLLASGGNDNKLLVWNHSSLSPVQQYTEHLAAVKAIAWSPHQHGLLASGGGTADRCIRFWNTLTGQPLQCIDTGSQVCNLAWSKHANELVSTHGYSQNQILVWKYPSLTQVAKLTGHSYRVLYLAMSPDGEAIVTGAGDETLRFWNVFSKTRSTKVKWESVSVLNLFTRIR
USP10 amino acids 210-802, expressed in HEK293T cells (Q14694, residues 206-798): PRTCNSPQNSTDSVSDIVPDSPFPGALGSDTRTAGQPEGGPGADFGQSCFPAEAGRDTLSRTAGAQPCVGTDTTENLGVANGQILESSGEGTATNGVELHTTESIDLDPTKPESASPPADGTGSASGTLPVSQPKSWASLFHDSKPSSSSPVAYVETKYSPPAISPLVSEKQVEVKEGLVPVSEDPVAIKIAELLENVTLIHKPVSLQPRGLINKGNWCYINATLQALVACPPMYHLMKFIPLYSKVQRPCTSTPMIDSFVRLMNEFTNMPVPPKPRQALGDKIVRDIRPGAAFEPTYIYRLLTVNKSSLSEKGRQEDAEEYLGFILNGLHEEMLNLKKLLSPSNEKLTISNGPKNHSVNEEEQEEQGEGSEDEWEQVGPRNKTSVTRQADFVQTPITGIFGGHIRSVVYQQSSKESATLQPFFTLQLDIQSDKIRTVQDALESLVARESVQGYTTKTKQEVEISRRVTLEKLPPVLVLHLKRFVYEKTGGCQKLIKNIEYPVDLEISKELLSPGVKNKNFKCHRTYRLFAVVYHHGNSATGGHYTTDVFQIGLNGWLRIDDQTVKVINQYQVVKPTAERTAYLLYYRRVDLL
USP10 amino acids 403-802, expressed in HEK293T cells (Q14694, residues 399-798): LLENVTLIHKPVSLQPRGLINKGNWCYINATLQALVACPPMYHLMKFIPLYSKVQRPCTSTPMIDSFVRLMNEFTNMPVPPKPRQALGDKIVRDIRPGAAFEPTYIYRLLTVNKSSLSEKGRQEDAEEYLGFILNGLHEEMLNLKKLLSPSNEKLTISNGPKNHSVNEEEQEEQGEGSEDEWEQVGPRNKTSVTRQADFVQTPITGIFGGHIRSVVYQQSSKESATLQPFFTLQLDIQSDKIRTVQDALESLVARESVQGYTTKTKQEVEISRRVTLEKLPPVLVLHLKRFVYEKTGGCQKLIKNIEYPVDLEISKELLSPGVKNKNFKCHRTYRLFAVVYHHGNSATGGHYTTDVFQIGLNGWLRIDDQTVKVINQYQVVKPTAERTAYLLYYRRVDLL
recombinant His-USP10 (Q14694-3, form named): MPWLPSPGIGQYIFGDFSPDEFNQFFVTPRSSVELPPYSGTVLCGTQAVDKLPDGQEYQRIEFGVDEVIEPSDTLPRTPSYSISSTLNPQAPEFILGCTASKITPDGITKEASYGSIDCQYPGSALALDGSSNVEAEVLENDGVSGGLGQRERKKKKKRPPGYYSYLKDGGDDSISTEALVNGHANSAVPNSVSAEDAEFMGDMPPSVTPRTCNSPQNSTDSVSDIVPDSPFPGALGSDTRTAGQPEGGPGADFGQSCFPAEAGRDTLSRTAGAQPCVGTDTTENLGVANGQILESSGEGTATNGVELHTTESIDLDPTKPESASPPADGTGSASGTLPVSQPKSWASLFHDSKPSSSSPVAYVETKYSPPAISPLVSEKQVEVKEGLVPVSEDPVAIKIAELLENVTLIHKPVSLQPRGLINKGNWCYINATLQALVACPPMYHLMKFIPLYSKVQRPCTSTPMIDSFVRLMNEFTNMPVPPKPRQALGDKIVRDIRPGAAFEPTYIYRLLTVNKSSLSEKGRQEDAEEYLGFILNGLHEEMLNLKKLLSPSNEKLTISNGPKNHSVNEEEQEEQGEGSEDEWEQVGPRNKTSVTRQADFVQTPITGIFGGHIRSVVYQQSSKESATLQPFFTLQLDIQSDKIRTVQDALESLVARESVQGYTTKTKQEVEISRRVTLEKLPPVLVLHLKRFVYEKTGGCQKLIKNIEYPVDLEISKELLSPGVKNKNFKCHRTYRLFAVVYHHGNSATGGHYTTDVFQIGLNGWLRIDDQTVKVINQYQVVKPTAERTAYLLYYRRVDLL

The target in test [1] is T1, Anillin (ANLN), endogenous (human (endogenous in KYSE150 and KYSE30)) (UniProt Q9NQW6).
T1 sequence: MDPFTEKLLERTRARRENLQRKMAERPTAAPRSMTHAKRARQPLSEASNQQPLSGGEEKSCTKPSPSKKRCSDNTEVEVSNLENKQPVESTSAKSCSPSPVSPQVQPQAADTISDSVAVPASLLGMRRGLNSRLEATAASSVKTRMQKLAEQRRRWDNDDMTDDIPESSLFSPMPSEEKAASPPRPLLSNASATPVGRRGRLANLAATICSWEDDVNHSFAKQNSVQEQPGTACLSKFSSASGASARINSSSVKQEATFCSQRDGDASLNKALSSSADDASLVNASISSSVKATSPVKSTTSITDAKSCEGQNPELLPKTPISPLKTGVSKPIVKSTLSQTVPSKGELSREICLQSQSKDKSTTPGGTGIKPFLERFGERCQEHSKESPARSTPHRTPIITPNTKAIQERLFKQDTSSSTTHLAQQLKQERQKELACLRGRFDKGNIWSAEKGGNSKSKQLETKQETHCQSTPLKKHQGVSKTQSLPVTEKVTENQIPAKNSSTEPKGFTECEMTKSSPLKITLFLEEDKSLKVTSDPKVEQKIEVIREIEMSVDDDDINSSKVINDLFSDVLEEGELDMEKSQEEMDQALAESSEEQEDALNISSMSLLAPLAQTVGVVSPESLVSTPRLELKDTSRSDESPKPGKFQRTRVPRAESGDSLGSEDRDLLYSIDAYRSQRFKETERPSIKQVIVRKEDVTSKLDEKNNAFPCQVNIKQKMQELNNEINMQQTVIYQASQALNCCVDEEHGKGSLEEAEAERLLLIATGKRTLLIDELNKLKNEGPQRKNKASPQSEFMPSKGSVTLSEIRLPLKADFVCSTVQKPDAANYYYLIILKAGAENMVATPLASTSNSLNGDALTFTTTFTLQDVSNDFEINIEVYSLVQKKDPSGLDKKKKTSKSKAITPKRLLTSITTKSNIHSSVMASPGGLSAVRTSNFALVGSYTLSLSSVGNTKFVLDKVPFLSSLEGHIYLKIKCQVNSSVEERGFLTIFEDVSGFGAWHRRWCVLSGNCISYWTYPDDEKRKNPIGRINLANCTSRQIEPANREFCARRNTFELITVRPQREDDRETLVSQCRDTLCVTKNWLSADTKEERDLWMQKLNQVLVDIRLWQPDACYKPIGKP
Briefly: co-IP; endogenous proteins in KYSE150 (and KYSE30) cells; EBC buffer (50 mM Tris pH 7.5, 120 mM NaCl, 0.5% NP-40), ANLN antibody or normal mouse IgG, protein A/G magnetic beads, 4 °C; also after siRNA, MG132 (20 μM), double thymidine block and release, or F806 (10 μM).

For test [2], the target named is Cdh1 (FZR1), endogenous (human (endogenous in KYSE150)) (UniProt Q9UM11). Described as above.
The target of test [3] is Cdh1 (FZR1), tagged, expressed in HEK293T cells (human) (UniProt Q9UM11). Description: co-IP; HEK293T cells transfected with the indicated plasmids for 48 h, harvested with EBC buffer, immunoprecipitation with HA or Flag magnetic beads, western blot.
Test [4] has as its target T2, ANLN, tagged, expressed in HEK293T cells (human) (UniProt Q9NQW6).
T2 sequence: T1 sequence
The description is as above.

Test [5] concerns the target recombinant GST-Cdh1 (human) (UniProt Q9UM11). Briefly: pull-down; in vitro GST pull down: GST-tagged protein bound to GST Bind Resin in GST lysis buffer, His-tagged proteins added, 4 °C for 4 h, six washes with PBST, western blot; both purified.

In the case of “USP10, endogenous (from UniProt Q14694-3 1-802) (enzyme)”, the binding entry in test [1] and in test [2] was “binds” in each case.

Consider “USP10, tagged, expressed in HEK293T cells (from UniProt Q14694-3 1-802) (enzyme)”, for which the binding entry in test [3] and in test [4] was “binds” throughout.

For “USP10 amino acids 210-802, expressed in HEK293T cells (from UniProt Q14694-3 210-802) (domain or fragment)”, the binding result in test [4] is listed as “binds”.

As for “Cdh1 (FZR1), endogenous (from UniProt Q9UM11 1-496)”, in test [1], the binding result was “binds”.

Take “Cdh1 (FZR1), tagged, expressed in HEK293T cells (from UniProt Q9UM11 1-496)”: the binding entry in test [4] is given as “binds”.

Take “recombinant His-USP10 (from UniProt Q14694-3 1-802) (enzyme)”: the binding result in test [5] is reported as “binds”.

With “USP10 amino acids 403-802, expressed in HEK293T cells (from UniProt Q14694-3 403-802) (domain or fragment)”, in test [4], the binding result is listed as “no binding”.

B1: recombinant His-ANLN (protein, UniProt Q9NQW6 1-1124)
chain: T1 sequence
Regarding B1, the binding entry in test [5] is “binds”.

For the origin of these results see publication PMC9950447, “Targeting USP10 induces degradation of oncogenic ANLN in esophageal squamous cell carcinoma” (Cell Death and Differentiation, 2022).
